# Reference: the supplement of paper PMC9433436
# ± gives the standard deviation of the averaged measurements. Whole data set: some 4,100 sequences, median “relative kcat/Km (krel) vs genomic leader AAAGAU” near 1.7, cut for the highest 2% near 6.5. Only a part is listed here, and it is no random draw.
# Target: T1, E. coli RNase P holoenzyme (M1 P RNA + rnpA protein) (UniProt P0A7Y8)
# T1 sequence: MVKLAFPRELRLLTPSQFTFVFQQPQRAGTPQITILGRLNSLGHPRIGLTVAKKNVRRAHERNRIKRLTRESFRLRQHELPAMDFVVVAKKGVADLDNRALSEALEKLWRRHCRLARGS
# Experiment: relative kcat/Km (krel) vs genomic leader AAAGAU (relative (reference leader = 1)); higher = faster RNase P cleavage
# Procedure: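 HTS-Kin: a pool of ptRNA-Met (21C construct) with all 4096 combinations of 5' leader nucleotides N(-6) to N(-1) was processed in vitro by E. coli RNase P (P RNA + rnpA/C5 protein) under multiple-turnover conditions at 37 C, pH 8, 17.5 mM MgCl2. Residual substrate was Illumina-sequenced at several fractions reacted, and relative kcat/Km (krel) was computed by internal competition kinetics, calibrated to the genomic leader (AAAGAU = 1). The listed hexamer is the varied N(-6)..N(-1) leader (DNA letters), and it sits between a fixed 5' stem-loop flank (GCAUGCACGAAAGUGCGUGCUAUGAA) and the mature tRNA-Met starting GGCUACGUAGCUCAGUUGG. Two technical replicates are averaged.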
# [1] = fraction of substrate reacted: ~9-10% (9.79% repeat 1, 9.1% repeat 2)
# [2] = fraction of substrate reacted: ~13-16% (15.68% repeat 1, 13.17% repeat 2)
# [3] = fraction of substrate reacted: ~26-29% (28.66% repeat 1, 26.4% repeat 2)
Sequence,relative kcat/Km [1],relative kcat/Km [2],relative kcat/Km [3]
CTTCAT,4.07 ± 1.5,4.78 ± 0.63,6.67 ± 2.6
TGATTA,2.2 ± 0.59,2.91 ± 0.12,3.73 ± 1.7
CCGTAA,3.37 ± 1.6,3.36 ± 1.1,4.6 ± 1.9
GTTCAC,3.88 ± 0.89,4.82 ± 0.92,6.76 ± 2.6
CCACGT,–,0.313 ± 0.19,–
CAGGAA,1.95 ± 1.2,1.51 ± 0.021,2.24 ± 0.82
ACCGGT,–,–,1.78 ± 1.1
CGATAA,3.35 ± 0.75,3.7 ± 1.2,5.94 ± 3
ACTGAG,1.16 ± 0.68,–,1.12 ± 0.33
CCGCAT,2.8 ± 0.84,2.91 ± 0.48,4.09 ± 1.3
GCAGGA,–,0.416 ± 0.17,0.936 ± 0.67
GGTCTC,0.785 ± 0.12,0.509 ± 0.09,1.14 ± 0.2
AGTCTC,2.08 ± 0.19,2.58 ± 0.26,3.44 ± 0.9
GACTGG,–,–,0.312 ± 0.28
CTCAGG,1.96 ± 1.2,1.21 ± 0.29,2.45 ± 0.18
AATTGT,–,–,1.5 ± 1.2
ACGAGC,1.54 ± 0.27,1.74 ± 0.63,1.95 ± 0.42
AAGTCC,1.69 ± 0.61,1.95 ± 0.29,2.1 ± 0.11
GAAATG,–,–,1.39 ± 0.18
TGGCAG,–,–,1.02 ± 0.66
TTTTCT,2.69 ± 0.86,3.69 ± 0.91,4.94 ± 1.8
TACAGC,3.82 ± 2,4.94 ± 0.45,–

Sequence,relative kcat/Km [1],relative kcat/Km [2],relative kcat/Km [3]
ACAGAC,1.89 ± 0.77,3.1 ± 0.47,3.42 ± 0.9
TAAGCA,1.03 ± 0.76,1.4 ± 0.22,1.54 ± 0.22
GTACAA,1.88 ± 1.1,2 ± 0.32,3.16 ± 1.6
AGTACT,2.34 ± 1.3,2.42 ± 0.095,3.74 ± 1.6
GAACTA,0.781 ± 0.45,1.6 ± 0.51,1.55 ± 0.37
GTCTGC,3.58 ± 1.3,4.94 ± 1.2,7.11 ± 3.3
ATTAGT,–,–,2.02 ± 1.9
CCCGGA,1.41 ± 0.36,1 ± 0.26,1 ± 0.27
CATACA,2.18 ± 1.1,1.98 ± 0.059,2.54 ± 0.85
TCTTAC,4.07 ± 1.8,4.47 ± 0.29,6.39 ± 1.9
TGAACC,1.62 ± 1.1,1.56 ± 0.31,2.48 ± 0.68
TGAATA,1.93 ± 0.86,1.59 ± 0.1,2.38 ± 1
CACTGC,3.89 ± 1.6,4.53 ± 1.3,6.06 ± 1.9
TTGTCG,–,–,1.07 ± 0.3
AAACCA,0.558 ± 0.15,0.733 ± 0.54,0.88 ± 0.078
GCCCGA,3.27 ± 1.2,3.68 ± 0.61,5.54 ± 2.1
CATGCC,1.89 ± 0.25,1.43 ± 0.76,2.15 ± 1.1
ATGTCG,–,–,1.1 ± 0.13
ATAATC,2.28 ± 1.6,1.55 ± 0.12,1.97 ± 0.51
TATATC,2.8 ± 1.7,2.65 ± 0.28,3.66 ± 1.3
TGCCCT,1.75 ± 0.94,2.15 ± 1.1,2.34 ± 0.99
GCGTGA,0.413 ± 0.4,0.685 ± 0.29,1.42 ± 0.34

Sequence,relative kcat/Km [1],relative kcat/Km [2],relative kcat/Km [3]
GAGTTC,1.41 ± 0.47,1.26 ± 0.38,1.74 ± 0.74
GTGCAG,1.19 ± 1,–,1.058 ± 0.006
AGGCAG,1.19 ± 1,0.898 ± 0.22,1.95 ± 0.36
CTCTGT,0.825 ± 0.31,1.81 ± 1.4,2.05 ± 1.6
GTATTG,–,–,1.75 ± 0.3
TAAGTG,–,–,0.321 ± 0.023
ATAGCT,1.05 ± 0.27,1.53 ± 0.29,1.25 ± 0.14
ATGCAA,0.826 ± 0.51,0.904 ± 0.38,1.32 ± 0.2
GCTAAT,0.911 ± 0.23,1.14 ± 0.37,1.87 ± 0.48
CGTGCC,1.41 ± 0.84,1.73 ± 1.1,1.83 ± 0.35
GCAATG,–,–,1.35 ± 0.34
AACGCT,1.66 ± 1.2,1.13 ± 0.28,2.05 ± 0.63
TCTAAT,3 ± 1.6,3.77 ± 0.8,4.46 ± 2
ACCTTT,2.86 ± 0.55,3.87 ± 0.96,5.07 ± 1.9
ACGTCT,1.95 ± 0.33,2.23 ± 0.95,3 ± 0.77
TGAGAT,0.754 ± 0.15,0.98 ± 0.33,1.44 ± 0.34
ATACTT,1.93 ± 1.3,1.97 ± 0.58,2.62 ± 1.1
TGACAT,2.4 ± 0.31,3.8 ± 1.1,5.84 ± 2.8
GCTACT,1.29 ± 0.45,0.602 ± 0.054,1.58 ± 0.79
GCTGCC,1.37 ± 0.5,0.461 ± 0.12,0.965 ± 0.29
CGGTTT,–,1.13 ± 0.27,1.05 ± 0.88
CAAGTT,0.913 ± 0.56,0.891 ± 0.12,1.05 ± 0.45

Sequence,relative kcat/Km [1],relative kcat/Km [2],relative kcat/Km [3]
TAGTAC,4.35 ± 1.3,5.28 ± 0.82,–
ACGTAT,2.73 ± 1.2,3.73 ± 1.2,5 ± 1.8
GAATCC,1.22 ± 1.1,1.8 ± 0.32,1.645 ± 0.0062
CTTCAG,–,1.26 ± 0.073,2.21 ± 0.1
TGTGTA,1.79 ± 1.2,1.02 ± 0.46,1.43 ± 0.65
CCCTTA,2.76 ± 0.36,3.38 ± 1.1,4.7 ± 1.5
GCCGCT,1.31 ± 0.67,–,1.9 ± 0.66
AAAAGG,–,–,0.378 ± 0.039
GATAAG,–,1.35 ± 0.65,2.29 ± 0.6
TCGACG,–,–,2.23 ± 0.3
ACACTA,1.82 ± 0.75,1.53 ± 0.19,1.73 ± 0.22
GGGGGC,–,–,1.59 ± 1.6
TAATCC,1.12 ± 0.074,1.55 ± 0.32,2.4 ± 0.91
CCCGCG,1.15 ± 0.018,–,2.27 ± 0.032
TAGTAG,1.88 ± 1.1,1.81 ± 0.36,3.72 ± 1.2
TGAGGA,0.562 ± 0.032,–,1.42 ± 0.78
ACCGGG,–,0.518 ± 0.4,–
GCTCTT,1.4 ± 1.4,1.16 ± 0.71,1.481 ± 0.0086
CTTTCT,3.15 ± 0.75,3.3 ± 1,4.15 ± 0.95
GCCGAG,1.93 ± 1.2,1.4 ± 0.4,2.96 ± 0.7
TTGGGC,1.37 ± 1.2,0.775 ± 0.68,–
GCCGTG,–,0.363 ± 0.24,–

Sequence,relative kcat/Km [1],relative kcat/Km [2],relative kcat/Km [3]
GTAGTA,1.14 ± 0.63,1.19 ± 0.34,1.38 ± 0.23
CCCCCC,2.3 ± 0.57,2.83 ± 1.3,2.97 ± 1.2
GACATT,3.42 ± 0.26,4.33 ± 1.3,6.4 ± 3.1
ACGCCC,2.16 ± 0.76,2.28 ± 0.84,3.21 ± 1.2
CGAGAC,3.33 ± 0.08,2.84 ± 1.4,4 ± 2.3
AGCTTG,–,–,1.254 ± 0.0075
TTAAAT,3.03 ± 1.4,2.972 ± 0.016,4.14 ± 1.4
TCTGAC,2.82 ± 0.24,3.41 ± 1,3.99 ± 2.1
CACACC,2.49 ± 1.9,2.8 ± 0.45,4.67 ± 1.6
GCCTGA,2.14 ± 0.69,4.01 ± 0.52,5.28 ± 2.4
GGGGGA,–,–,1.61 ± 1.4
TGGAGA,–,–,0.862 ± 0.092
TCGGAG,0.959 ± 0.8,0.391 ± 0.23,0.613 ± 0.14
CACGAA,4.26 ± 1.8,6 ± 1.6,–
ATACAC,2.97 ± 1.6,3.29 ± 0.21,4.7 ± 1.6
CACTGA,2.94 ± 1.2,3.71 ± 0.65,5.8 ± 1.7
ACTGTT,–,0.629 ± 0.32,0.808 ± 0.1
TGAATT,1.85 ± 0.021,2.46 ± 0.35,3.24 ± 1.4
